# In paper PMC6919601, “Identification of Plasmodium dipeptidyl aminopeptidase allosteric inhibitors by high throughput screening” (PLoS ONE, 2019):
# The whole screen tested about 110,000 compounds, of which about 230 (0.21%) showed an effect of 50% or more. Some of the results follow.
# Target: DPAP1 (Plasmodium falciparum, UniProt Q8IIJ9)
# Assay: primary screen, percent inhibition; read by cleavage of a fluorogenic dipeptide substrate; higher = more effect of the substance
# Design: species or system P. falciparum D10 trophozoite lysates; single well
# 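Note: 30 min substrate incubation versus DMSO and 10 µM JCP410 controls.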
# Chain of DPAP1 (Q8IIJ9 whole entry, looked up): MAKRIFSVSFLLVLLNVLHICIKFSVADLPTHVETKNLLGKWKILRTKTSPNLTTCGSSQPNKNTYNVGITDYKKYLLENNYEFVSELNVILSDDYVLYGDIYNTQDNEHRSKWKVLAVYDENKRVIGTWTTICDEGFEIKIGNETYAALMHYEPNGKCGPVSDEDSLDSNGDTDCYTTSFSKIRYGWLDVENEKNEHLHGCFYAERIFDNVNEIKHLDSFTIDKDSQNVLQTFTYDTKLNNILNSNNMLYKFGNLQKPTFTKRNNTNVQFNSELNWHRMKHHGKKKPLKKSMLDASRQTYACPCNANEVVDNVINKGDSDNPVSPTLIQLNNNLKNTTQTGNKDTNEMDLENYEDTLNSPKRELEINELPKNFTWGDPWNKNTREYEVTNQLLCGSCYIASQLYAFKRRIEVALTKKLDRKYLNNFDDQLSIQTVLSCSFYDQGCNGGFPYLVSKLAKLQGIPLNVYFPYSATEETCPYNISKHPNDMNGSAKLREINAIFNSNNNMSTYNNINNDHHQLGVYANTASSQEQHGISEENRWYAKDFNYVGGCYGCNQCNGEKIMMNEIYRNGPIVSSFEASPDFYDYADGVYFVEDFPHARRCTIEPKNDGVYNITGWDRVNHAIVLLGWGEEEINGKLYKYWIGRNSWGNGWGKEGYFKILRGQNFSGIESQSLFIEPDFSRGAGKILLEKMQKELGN
row,SMILES,% Inhibition @ 10 uM
1,Cc1ccc(CN2CCN(C(=O)c3ccccc3F)CC2)cc1,-13.4%
2,Cc1cc(N2CCNCC2)c2ccccc2n1,-1.55%
3,COCCCNC(=O)c1cc(-c2ccc(C)cc2)nc2[nH]nc(-c3ccc(C)cc3)c12,2.96%
4,Oc1oc(-c2cccc3ccccc23)nc1/C=N/Cc1ccccc1,3.42%
5,COc1ccc2occ(C(O)c3ccccc3)c2c1 (centres unmarked),1.04%
6,C=CCOC(=O)C1=C(C)N(C)C(=O)NC1c1ccc(OCc2ccccc2)cc1 (centres unmarked),13.2%
7,O=C1CC(c2ccccc2)OC12CCCCC2 (centres unmarked),-2.47%
8,COc1cc(OC)cc(C(=O)NCc2ccccc2)c1,-2.32%
9,Cn1c(=O)c(C(=O)c2ccccc2Cl)c(O)c2ccccc21,-4.31%
10,CCCN(CCO)Cc1ccc(OC(F)(F)F)cc1,-1.75%
11,S=C(c1ccc(-c2ccc(Cl)cc2Cl)o1)N1CCOCC1,-3.98%
12,COc1ccc(CC(=O)n2nc(-c3ccccc3)c(Br)c2N)cc1OC,5.45%
13,N#CCNC(=O)[C@H](Cc1ccc(-c2ccccc2)cc1)NC(=O)OCc1ccccc1,-5.2%
14,CC(C)(O)C#Cc1ccc(C(=O)NCc2ccccc2)s1,-2.63%
15,Cc1c(C(=O)NCCCOC(C)C)sc2nc(-c3ccc(F)cc3)cn12,-0.138%
16,Cc1ccc(S(=O)(=O)NCCN2CCOCC2)cc1-c1nnc2c3ccccc3c(C)nn12,-1.82%
17,CC(C)C[C@H](NC(=O)c1cc(Br)c(O)cc1O)C(=O)NCC#N,0.174%
18,N#CCNC(=O)[C@H](CSCc1ccc(SC(F)(F)F)cc1)NC(=O)c1ccccc1,-3.49%
19,O=C(NCc1noc2ccccc12)N1CCCCC1,3.54%
20,COc1ccc(C2=NC(c3ccsc3)NC(c3cc(Cl)ccc3O)C2)cc1 (centres unmarked),-4.24%
21,Fc1ccccc1OCCCCn1ccnc1,1.83%
22,Oc1cccc(CN2CCC(Cc3ccccc3)CC2)c1,-1.18%
23,CCc1ccccc1NC(=O)CN(c1ccccc1)S(C)(=O)=O,2.33%
24,O=C(O)C1CCCCC1C(=O)Nc1cccc(Cl)c1 (centres unmarked),6.74%
25,COc1ccc(Cn2c(=O)oc3ccccc32)cc1OC,-1.98%
26,O=C(O)c1ccc(CNc2nc3ccc(C(=O)c4ccccc4)cc3n3cnnc23)cc1,-5.93%
27,COC(=O)c1sc(N2C(=O)c3oc4ccccc4c(=O)c3C2c2ccco2)nc1C (centres unmarked),4.06%
28,COc1cc(NC(=O)c2ccc(Cl)s2)c(OC)cc1Cl,-2.88%
29,CCSc1nc(O)c2c(n1)NC(=O)CC2c1ccc(F)cc1F (centres unmarked),3.84%
